Measured values taken from PubChem BioAssay AID1963964 (Molecular Pharmacology Branch, DTP, NCI, 2024).
Certain results were filed several times, with different values. The list is limited to them. The source may hold further records. Values that stand side by side repeat one measurement (runs, samples, wells, individuals or studies).

Tested on: 997726-040-R-J2-PDC tumor spheroids, viability
Assay: Anticancer human tumor 997726-040-R-J2-PDC patient-derived squamous cell lung carcinoma cell line growth inhibition [PI3K]
Details: spheroids with HUVEC and MSC; for viability, T/C: stronger effect = lower value; for IC50: compound alone
From the text: Combinatorial screen of targeted agents with the PI3K inhibitors inavolisib, alpelisib, duvelisib, and copanlisib in multi-cell type tumor spheroids
A high-throughput screen of multi-cell type tumor spheroids was designed to identify active combinations of targeted small molecules and PI3K pathway inhibitors. Complex spheroids include a stromal component modeled by human endothelial cells (HUVEC) and fibroblasts modeled by human mesenchymal stem cells (MSCs). The concentration ranges selected for each drug and investigational agent were based upon clinically achievable concentrations if the clinical Cmax of the agent was known.
Compounds. The drugs and investigational agents: inavolisib (NSC800729), alpelisib (NSC765974), duvelisib (NSC772469), copanlisib (NSC816437), ipatasertib (NSC767898), afuresertib (NSC778305), talazoparib (NSC767125), sapanisertib (NSC764658), selumetinib (NSC741078), tovorafenib (DAY101, NSC766906), vemurafenib (NSC761431), ravoxertinib (NSC781343), sotorasib (NSC818433), MRTX1133 (NSC 836407), abemaciclib (NSC 768073), palbociclib (NSC758247), venetoclax (NSC 766270), SY5609 (NSC837396), enzalutamide (NSC755605), and darolutamide (NSC825331), were obtained from the National Cancer Institute (NCI) Developmental Therapeutics Program Chemical Repository. The FDA-approved anticancer drug set is available from the NCI Developmental Therapeutics Program. […] The stock solutions were prepared in dimethyl sulfoxide (DMSO, Sigma-Aldrich, St. Louis, MO, cat. D2650) at 800-fold the tested concentration and stored at -70 degrees C prior to their use. All drugs and investigational agents were tested over a range starting from a high concentration at or near the clinical Cmax and decreasing in half-log increments. If the clinical Cmax for an agent had not been determined, the highest concentration tested was 10 microM.
Cell Culture. All cells were maintained in an incubator at 37 degrees C and 5% CO2 with 95% humidity. The PDC lines were cultured according to standard operating procedures established by the NCI PDMR (https://pdmr.cancer.gov/sops/default.htm). All PDCs were thawed and cultured in Matrigel-coated flasks prepared with a working solution of 1X Ham's F-12 nutrient mix, without supplementation (Invitrogen, Waltham, MA, cat. 11765054), 100 U/mL penicillin-streptomycin (Invitrogen, cat. 15140122), and 2.5% Matrigel (Corning Inc., Corning, NY, cat. 354248) for the first three passages. The 354836-022-R-J1-PDC, 475296-252-R-J1-PDC, and 997726-040-R-J2-PDC lines were cultured in 6A media, which includes advanced DMEM/F-12 (Thermo Fisher Scientific, cat. 12634028), 10 mM HEPES (Thermo Fisher Scientific, cat. 15630080), 1X GlutaMAX supplement (Thermo Fisher Scientific, cat. 35050061), 0.1 mg/mL primocin (InvivoGen, San Diego, CA, cat. ant-pm-2), 10% defined fetal bovine serum, heat inactivated (HyClone Laboratories Inc., Logan, UT, cat. SH30070.03HI), 50% L-WRN conditioned media (ATCC, cat. CRL-3276), 1.25 mM N-Acetyl-L-cysteine (Sigma-Aldrich, cat. A9165), 10 mM nicotinamide (Sigma-Aldrich, cat. N0636), 1X B-27 supplement (Thermo Fisher Scientific, cat. 17504044), 1X N-2 supplement (Thermo Fisher Scientific, cat. 17502048), and 10 microM Y-27632 dihydrochloride (Tocris Bioscience, Bristol, United Kingdom, cat. 1254). The 624824-186-R-J2-PDC line was cultured in 6C/Colon 1B media, which includes all 6A media components plus 50 ng/mL human EGF recombinant protein (Thermo Fisher Scientific, cat. PHG0311). […]
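Also: spheroids exposed to compounds for seven days before readout.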

IC50	Structure (SMILES)	viability, T/C (compound alone 3.16 µM)	also measured
–	C[C@@H](NC(=O)c1ncnc(N)c1Cl)c1ncc(C(=O)Nc2cc(C(F)(F)F)c(Cl)cn2)s1	–	viability, T/C (compound alone 0.0316 µM): 118, 97.8, 130, 122%
–	CC1(C)CCC(CN2CCN(c3ccc(C(=O)NS(=O)(=O)c4ccc(NCC5CCOCC5)c([N+](=O)[O-])c4)c(Oc4cnc5[nH]ccc5c4)c3)CC2)=C(c2ccc(Cl)cc2)C1	–	viability, T/C (compound alone 0.316 µM): 83.9, 99.7, 113, 102%
–	CCCS(=O)(=O)Nc1ccc(F)c(C(=O)c2c[nH]c3ncc(-c4ccc(Cl)cc4)cc23)c1F	121, 103, 159, 164%	–
< 31.6 nM, 3.38 µM, 31.6 nM	CC1(C)CCC(Nc2ncc(C(F)(F)F)c(-c3c[nH]c4c(P(C)(C)=O)c(C#N)ccc34)n2)CN1 (configuration not stated)	36.6, 35, 60.6, 52.3%	–
264, 286, 87.9, 447 nM	Cn1cnc2c(F)c(Nc3ccc(Br)cc3Cl)c(C(=O)NOCCO)cc21	–	–
–	CCN1CCN(Cc2ccc(Nc3ncc(F)c(-c4cc(F)c5nc(C)n(C(C)C)c5c4)n3)nc2)CC1	–	viability, T/C (compound alone 1 µM): 60.2, 63.9, 86.3, 85.4%
